Source: the supplement of paper PMC11417369
This is one part of the list.

The sequences below were run on PfHDP1 homeodomain (GST-tagged) (assay: gcPBM binding intensity (ln(normalized median fluorescence intensity)); higher = stronger DNA binding).
In short: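 After 1 h on an Agilent 4 × 180k array of primer-extended double-stranded 36-bp intergenic genomic probes and negative controls, bound GST-tagged P. falciparum DNA-binding domains were detected with Alexa488 anti-GST antibody and scanned at 488 nm. The domains had been expressed in E. coli, and binding took place in 1× PBS with 1% milk, 0.2 mg/ml BSA, 0.5% salmon testes DNA and 0.03% Triton X-100. Binding intensity is the highest Masliner-normalised natural-log median intensity across replicate spots of either probe orientation.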

| Sequence | gcPBM binding intensity (ln) |
| --- | --- |
| TCGTCACTTTAATATTGTACATATATATATATATAT [XGTACX_site8046] | 9.54 |
| TATAAATATAGACACACACACACACCGAAGCGTAGC [CACACA_site6180] | 6.65 |
| CATCCATTATTAATATGTACATATGTATATATATTA [XGTACX_site1318] | 6.59 |
| CACATACACATACAAACACACATTATATATATATAT [CACACA_site8460] | 9.02 |
| TTTTTTTTTTTTTTTTTTTTTTTCTTTATTTTTTTT [CACACA_negctrl_site703] | 6.11 |
| GAAAAAAAAAAAAGGGGTACATTTATTTTATCAATA [XGTACX_site8331] | 5.99 |
| AATAATTATTTGTATAGTACAATATACAAAAGATGA [XGTACX_site4312] | 6.7 |
| AAAATTTAAAAATGGACACACACAAAAAATAATACT [CACACA_site7972] | 7.14 |
| AACTTTTTACAAACAGGTACGCATATATATATATAT [XGTACX_site5081] | 9.41 |
| ATATATAAAATTATATGTACATATATCTATTTATAA [XGTACX_site3713] | 6.44 |
| ACCTCACAAATGAATACACACAAACATATAGATTTA [CACACA_site6862] | 7.08 |
| GATTAAAACTTTAACTGTACATAATAATTATCAATC [XGTACX_site5938] | 6.31 |
| TTTAAAATTTCTTAATGTACGTAATAAAAAAAAAAA [XGTACX_site4037] | 6.36 |
| AATATTGTTCACAAGGTGCTTTTTATTCATACTAAT | 6.22 |
| TATGTATAACTCAATGCATGCGAAGGACTATTATTT [TGCATGCA_site222] | 6.47 |
| TATATCTACTTAAAAAGTACGTAAATTATAAGCTAT [XGTACX_site6420] | 5.98 |
| TGTGTAAATATGTATACACACATATCTGATCAATAT [CACACA_site7507] | 6.62 |
| TATATGTATTTATATACACACATATTCTTTTTACAC [CACACA_site8320] | 6.69 |
| AATATTTTGAACAACAGTACTCTTTCTTTCTTTCTT [XGTACX_site7212] | 6.28 |

| Sequence | gcPBM binding intensity (ln) |
| --- | --- |
| TCCTTTTCATCTTGTAGTACGGAAATGTAGCTCCAA [XGTACX_site8563] | 6.58 |
| TGCATATGCATTATTTGTACATATGTAGATAATTAT [XGTACX_site6930] | 6.81 |
| CATATATAGATATATACACACATACATACATACATA [CACACA_site7748] | 6.69 |
| AAAAATTACAAATACAAACACACAAATGTTTTTCAT [CACACA_site3551] | 6.27 |
| AATAAAATAAATATATGTACATATATATAACCATTA [XGTACX_site5549] | 6.47 |
| AGAGAAAGAAGGGAGAAAAAATAAAATAAAATAAAA [GTGCAC_negctrl_site299] | 6.43 |
| AATAAAAAAAAACTCATGCACACAATATTATGAAAA [CACACA_site664] | 8.71 |
| TTTTAATGATATATGAGTACACATTGTTTTTTATAA [XGTACX_site1072] | 6.44 |
| ATATAATGATGGAAAAGAAAAGAAATAAAAAAAAAA [CACACA_negctrl_site1170] | 6.17 |
| AAATAATAAAACAACACACAAATAGTTAAAATAGAA [CACACA_site5007] | 6.87 |
| TTGACATATAAGATATGTACTAATACACACACATAT [XGTACX_site1904] | 6.84 |
| ACATTCTATATATACACACATACATAATAAAGAAAG [CACACA_site2771] | 6.9 |
| TATAAACCATAATTAACACACAAAATAAGTTACATA [CACACA_site3227] | 6.58 |
| ATAATAATAAAAATTATACATAAGTATATGCACATA [XGTACX_negctrl_site583] | 10.3 |
| TTTTGCTTTTTTTTTCTTTTTTGTTTTATATATATT [CACACA_negctrl_site103] | 6.37 |
| ACATATGGTATTTAAACACACAAAAAAGAAAGAAAA [CACACA_site991] | 6.43 |
| AAATGGTAAGAAAATAAATAAAGTTCTACCACATAA [CACACA_negctrl_site1542] | 6.41 |
| ATATATATATATATATATATATATGTTTGATTTTTT [XGTACX_negctrl_site98] | 9.73 |
| ATTTTTCTTTTATTAACACACATATAAATAAATACA [CACACA_site2876] | 6.6 |

| Sequence | gcPBM binding intensity (ln) |
| --- | --- |
| TAGAAAGAATATAATTGTACAAATGTTGATAGATAA [XGTACX_site7259] | 6.81 |
| TATATATATATATATATTTTAAATGATATAAATGGT [TGCATGCA_negctrl_site152] | 9.23 |
| AATTAATTAAATTAATGTACACATATATTTGTATTC [XGTACX_site2341] | 6.57 |
| CCACATTAAAAAAAAACACACATATATTATATATAT [CACACA_site1155] | 7.19 |
| AAAATGACATAATGGGGAATAGACATATACATAAAT [CACACA_negctrl_site1669] | 6.55 |
| AATACATGAATATGTAGTACAGAAAAAAAAAATATA [XGTACX_site1945] | 6.48 |
| AATTAATGGCTAAAGGTGCACAATATATATATTACA | 9.84 |
| AAAATAAAAAAAAACACACACATACAAGCATATATA [CACACA_site1585] | 6.84 |
| AAAAAAAAATTTAAGGGTACATACAAATATATATAT [XGTACX_site5078] | 8.02 |
| TCCCTTCATCTTTTATGTACTAAAAAATTGAATAAT [XGTACX_site2172] | 6.67 |
| TAATACGAATGAGGCACACACCTAGTATACATGCTT [CACACA_site6438] | 6.26 |
| AATTAAAATTTTTGAAGTACACTCAAAATAAGTTAT [XGTACX_site4490] | 6.23 |
| AATTAACCCTAATTTTGTACATATTCCTTTTCTCAT [XGTACX_site46] | 7.07 |
| AATAAAAATAGGAATACGCACACGATGATTAATTTA [CACACA_site1836] | 6.43 |
| TATACCACACGATATACACACTTGTAGACATCTTTT [CACACA_site6232] | 6.68 |
| GTTACTATGATTAATGCATGCAAATACCAAAAAAAA [TGCATGCA_site590] | 6.82 |
| TGGAATAATCCGCGTACACACATATATATATTAAGA [CACACA_site4253] | 6.74 |
| TTATATTCTAGAGACACATGCGATTTTTTATTTTAT [TGCATGCA_site649] | 6.19 |
